Measured values taken from paper PMC9911399, “Two distinct binding modes provide the RNA-binding protein RbFox with extraordinary sequence specificity”.
Substitutions are numbered along the chain they refer to; changes in the protein carry UniProt numbers. The list shows a part of the results.

T1: RBFOX1 RRM RbFoxmut (Fox-RRM*) (Homo sapiens, UniProt Q9NWB1 109-208, R118D;E147R;N151S;E152T)
T1 sequence: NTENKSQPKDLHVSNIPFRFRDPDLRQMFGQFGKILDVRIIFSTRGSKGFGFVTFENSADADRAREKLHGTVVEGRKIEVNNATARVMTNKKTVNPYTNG

B1: UUCGUCG (DNA:RNA)
RNA: GGGAGACCGGAAUUCAGAUUGUCCUUCGUCGUUAAAUCCCGUCGUAGCCACCA
DNA 1: CAATCTGAATTCCGGTCTCCC
DNA 2: TGGTGGCTACGACGGGATT
B2: AGAACAU (DNA:RNA)
RNA: GGGAGACCGGAAUUCAGAUUGUCCAGAACAUUUAAAUCCCGUCGUAGCCACCA
DNA 1: CAATCTGAATTCCGGTCTCCC
DNA 2: TGGTGGCTACGACGGGATT
B3: UGCCCAU (DNA:RNA)
RNA: B2 RNA with A25U, A27C, A28C
DNA 1: CAATCTGAATTCCGGTCTCCC
DNA 2: TGGTGGCTACGACGGGATT
B4: GGGCGAC (DNA:RNA)
RNA: B2 RNA with A25G, A27G, A28C, C29G, U31C
DNA 1: CAATCTGAATTCCGGTCTCCC
DNA 2: TGGTGGCTACGACGGGATT
B5: GGCCAAU (DNA:RNA)
RNA: B2 RNA with A25G, A27C, A28C, C29A
DNA 1: CAATCTGAATTCCGGTCTCCC
DNA 2: TGGTGGCTACGACGGGATT
B6: CAGCGUU (DNA:RNA)
RNA: B2 RNA with A25C, G26A, A27G, A28C, C29G, A30U
DNA 1: CAATCTGAATTCCGGTCTCCC
DNA 2: TGGTGGCTACGACGGGATT
B7: AAUACUU (DNA:RNA)
RNA: B2 RNA with G26A, A27U, A30U
DNA 1: CAATCTGAATTCCGGTCTCCC
DNA 2: TGGTGGCTACGACGGGATT
B8: GUUGUAG (DNA:RNA)
RNA: B1 RNA with U25G, C27U, C30A
DNA 1: CAATCTGAATTCCGGTCTCCC
DNA 2: TGGTGGCTACGACGGGATT
B9: UCCCGUG (DNA:RNA)
RNA: B1 RNA with U26C, G28C, U29G, C30U
DNA 1: CAATCTGAATTCCGGTCTCCC
DNA 2: TGGTGGCTACGACGGGATT
B10: ACCAGGU (DNA:RNA)
RNA: B2 RNA with G26C, A27C, C29G, A30G
DNA 1: CAATCTGAATTCCGGTCTCCC
DNA 2: TGGTGGCTACGACGGGATT
B11: GAUAGUC (DNA:RNA)
RNA: B2 RNA with A25G, G26A, A27U, C29G, A30U, U31C
DNA 1: CAATCTGAATTCCGGTCTCCC
DNA 2: TGGTGGCTACGACGGGATT
B12: GAGACUU (DNA:RNA)
RNA: B2 RNA with A25G, G26A, A27G, A30U
DNA 1: CAATCTGAATTCCGGTCTCCC
DNA 2: TGGTGGCTACGACGGGATT
B13: UAUCCGG (DNA:RNA)
RNA: B1 RNA with U26A, C27U, G28C, U29C, C30G
DNA 1: CAATCTGAATTCCGGTCTCCC
DNA 2: TGGTGGCTACGACGGGATT
B14: GCCACCC (DNA:RNA)
RNA: B2 RNA with A25G, G26C, A27C, A30C, U31C
DNA 1: CAATCTGAATTCCGGTCTCCC
DNA 2: TGGTGGCTACGACGGGATT
B15: UGCGUGA (DNA:RNA)
RNA: B1 RNA with U26G, C30G, G31A
DNA 1: CAATCTGAATTCCGGTCTCCC
DNA 2: TGGTGGCTACGACGGGATT
B16: AUGCCCA (DNA:RNA)
RNA: B2 RNA with G26U, A27G, A28C, A30C, U31A
DNA 1: CAATCTGAATTCCGGTCTCCC
DNA 2: TGGTGGCTACGACGGGATT
B17: GUUGCGA (DNA:RNA)
RNA: B1 RNA with U25G, C27U, U29C, C30G, G31A
DNA 1: CAATCTGAATTCCGGTCTCCC
DNA 2: TGGTGGCTACGACGGGATT
B18: AAUCAAC (DNA:RNA)
RNA: B2 RNA with G26A, A27U, A28C, C29A, U31C
DNA 1: CAATCTGAATTCCGGTCTCCC
DNA 2: TGGTGGCTACGACGGGATT
B19: GUCGGCC (DNA:RNA)
RNA: B1 RNA with U25G, U29G, G31C
DNA 1: CAATCTGAATTCCGGTCTCCC
DNA 2: TGGTGGCTACGACGGGATT
B20: UACAAUG (DNA:RNA)
RNA: B1 RNA with U26A, G28A, U29A, C30U
DNA 1: CAATCTGAATTCCGGTCTCCC
DNA 2: TGGTGGCTACGACGGGATT
B21: GCAAUCC (DNA:RNA)
RNA: B2 RNA with A25G, G26C, C29U, A30C, U31C
DNA 1: CAATCTGAATTCCGGTCTCCC
DNA 2: TGGTGGCTACGACGGGATT
B22: CUAGUAG (DNA:RNA)
RNA: B1 RNA with U25C, C27A, C30A
DNA 1: CAATCTGAATTCCGGTCTCCC
DNA 2: TGGTGGCTACGACGGGATT
B23: CCUCGUC (DNA:RNA)
RNA: GGGAGACCGGAAUUCAGAUUGUCCCCUCGUCUUAAAUCCCGUCGUAGCCACCA
DNA 1: CAATCTGAATTCCGGTCTCCC
DNA 2: TGGTGGCTACGACGGGATT
B24: ACCACUU (DNA:RNA)
RNA: B2 RNA with G26C, A27C, A30U
DNA 1: CAATCTGAATTCCGGTCTCCC
DNA 2: TGGTGGCTACGACGGGATT
B25: AAGCUGC (DNA:RNA)
RNA: B23 RNA with C25A, C26A, U27G, G29U, U30G
DNA 1: CAATCTGAATTCCGGTCTCCC
DNA 2: TGGTGGCTACGACGGGATT
B26: AAGCUUG (DNA:RNA)
RNA: B23 RNA with C25A, C26A, U27G, G29U, C31G
DNA 1: CAATCTGAATTCCGGTCTCCC
DNA 2: TGGTGGCTACGACGGGATT
B27: UCCAUGU (DNA:RNA)
RNA: B1 RNA with U26C, G28A, C30G, G31U
DNA 1: CAATCTGAATTCCGGTCTCCC
DNA 2: TGGTGGCTACGACGGGATT
B28: AAAUAGA (DNA:RNA)
RNA: B2 RNA with G26A, A28U, C29A, A30G, U31A
DNA 1: CAATCTGAATTCCGGTCTCCC
DNA 2: TGGTGGCTACGACGGGATT
B29: AGCCGUU (DNA:RNA)
RNA: B2 RNA with A27C, A28C, C29G, A30U
DNA 1: CAATCTGAATTCCGGTCTCCC
DNA 2: TGGTGGCTACGACGGGATT
B30: UUAGGAC (DNA:RNA)
RNA: B1 RNA with C27A, U29G, C30A, G31C
DNA 1: CAATCTGAATTCCGGTCTCCC
DNA 2: TGGTGGCTACGACGGGATT
B31: ACCAUCG (DNA:RNA)
RNA: B1 RNA with U25A, U26C, G28A
DNA 1: CAATCTGAATTCCGGTCTCCC
DNA 2: TGGTGGCTACGACGGGATT

target: T1, RBFOX1 RRM RbFoxmut (Fox-RRM*); assay: EMSA; HiTS-Eq, 1 nM pool, 10 min; buffer printed only for the single-RNA assays: 10 mM Tris pH 7.5, 150 mM NaCl, 3.4 mM EDTA, 0.001% NP-40, 30 C; settings: tags: His6 N-terminal (pET28a); label: 5' 32P
Procedure, shortened: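 Relative association constants, normalised to the cognate motif, were derived by comparing read counts of each RNA species with those of the control reaction. The RNA sequenced was the free fraction, separated by 8% native PAGE after a 10 min equilibration in 50 µL of 1 nM 5′-radiolabelled RNA (7 randomized nucleotides) with increasing concentrations of purified wild-type or mutant RbFox RRM.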

Binder	binding signal
B1	0.124 KA relative to UGCAUGU
B2	0.0619 KA relative to UGCAUGU
B3	0.086 KA relative to UGCAUGU
B4	0.0925 KA relative to UGCAUGU
B5	0.0535 KA relative to UGCAUGU
B6	0.112 KA relative to UGCAUGU
B7	0.124 KA relative to UGCAUGU
B8	0.168 KA relative to UGCAUGU
B9	0.117 KA relative to UGCAUGU
B10	0.11 KA relative to UGCAUGU
B11	0.0781 KA relative to UGCAUGU
B12	0.0483 KA relative to UGCAUGU
B13	0.076 KA relative to UGCAUGU
B14	0.0541 KA relative to UGCAUGU
B15	0.159 KA relative to UGCAUGU
B16	0.0977 KA relative to UGCAUGU

Binder	binding signal
B17	0.0969 KA relative to UGCAUGU
B18	0.0524 KA relative to UGCAUGU
B19	0.214 KA relative to UGCAUGU
B20	0.0464 KA relative to UGCAUGU
B21	0.0263 KA relative to UGCAUGU
B22	0.129 KA relative to UGCAUGU
B23	0.0873 KA relative to UGCAUGU
B24	0.0717 KA relative to UGCAUGU
B25	0.0705 KA relative to UGCAUGU
B26	0.202 KA relative to UGCAUGU
B27	0.152 KA relative to UGCAUGU
B28	0.0945 KA relative to UGCAUGU
B29	0.0814 KA relative to UGCAUGU
B30	0.0674 KA relative to UGCAUGU
B31	0.0949 KA relative to UGCAUGU
